In PMC4336329 (PLoS ONE, 2015):
About 14,000 (4.5%) of roughly 310,000 compounds showed an effect of 50% or more. The effect is printed as a negative number. The list shows a part of the results.

target: human ether-à-go-go-related gene (hERG) potassium channel (human, UniProt Q12809); assay: primary screen, population patch clamp on CHO cells stably expressing hERG
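Further: peak tail current of the secondary pulse compared with the same well before compound.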

Sequence of human ether-à-go-go-related gene (hERG) potassium channel (Q12809 whole entry, looked up): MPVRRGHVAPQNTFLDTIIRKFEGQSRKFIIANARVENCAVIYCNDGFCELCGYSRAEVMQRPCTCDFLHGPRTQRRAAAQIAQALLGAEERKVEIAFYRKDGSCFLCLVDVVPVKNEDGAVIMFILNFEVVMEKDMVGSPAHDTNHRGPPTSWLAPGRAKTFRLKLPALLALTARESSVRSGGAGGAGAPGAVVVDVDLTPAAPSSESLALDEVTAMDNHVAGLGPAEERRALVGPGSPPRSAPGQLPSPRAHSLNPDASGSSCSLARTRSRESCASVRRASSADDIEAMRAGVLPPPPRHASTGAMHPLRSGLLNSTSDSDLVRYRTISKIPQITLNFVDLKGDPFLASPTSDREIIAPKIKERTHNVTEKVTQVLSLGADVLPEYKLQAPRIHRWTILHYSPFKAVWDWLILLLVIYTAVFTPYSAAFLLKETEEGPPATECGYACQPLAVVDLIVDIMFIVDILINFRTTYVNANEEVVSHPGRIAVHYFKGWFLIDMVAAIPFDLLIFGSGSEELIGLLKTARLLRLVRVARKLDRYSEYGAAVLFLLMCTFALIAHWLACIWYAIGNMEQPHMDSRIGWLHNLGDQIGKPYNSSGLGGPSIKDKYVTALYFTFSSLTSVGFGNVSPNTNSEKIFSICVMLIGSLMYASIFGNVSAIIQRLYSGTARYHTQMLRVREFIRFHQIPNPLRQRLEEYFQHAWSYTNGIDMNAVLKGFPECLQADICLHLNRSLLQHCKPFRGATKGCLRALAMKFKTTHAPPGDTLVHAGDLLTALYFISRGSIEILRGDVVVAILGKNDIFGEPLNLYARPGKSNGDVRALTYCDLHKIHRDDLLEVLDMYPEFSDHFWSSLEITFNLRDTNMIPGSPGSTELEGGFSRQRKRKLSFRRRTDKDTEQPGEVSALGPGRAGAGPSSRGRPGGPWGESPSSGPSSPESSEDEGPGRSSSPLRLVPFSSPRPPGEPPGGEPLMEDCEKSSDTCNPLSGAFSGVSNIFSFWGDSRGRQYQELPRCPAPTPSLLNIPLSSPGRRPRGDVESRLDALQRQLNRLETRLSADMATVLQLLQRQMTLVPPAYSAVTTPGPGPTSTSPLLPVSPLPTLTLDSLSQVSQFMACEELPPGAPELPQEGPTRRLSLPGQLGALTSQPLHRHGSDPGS

SMILES	hERG current change (%, negative = inhibition) at 10uM
CC(C)(C)n1nnnc1C(c1ccc2ncccc2c1)N1CCC(O)CC1 (stereo not drawn)	12.4%
CCSc1nnc(NC(=O)CSc2sc3c(O)cc(=O)[nH]c3c2C#N)s1	6.94%
CSc1nc2ccc(S(=O)(=O)N3CCc4ccccc43)cc2s1	-13.4%
O=C(c1ccccc1)N1CCC(=O)N1c1ccccc1	2.26%
COc1cccc(NC(=S)N(CCN(C)C)C(C)c2ccco2)c1 (stereo not drawn)	-26.9%
Cc1c(N2C(=O)CSC2c2ccc(F)cc2)c(=O)n(-c2ccccc2)n1C (stereo not drawn)	13.7%
COc1cc(/C=C/c2nc3ccccc3c(=O)n2-c2ccccc2O)ccc1O	-0.27%
COc1cc(OC)c2c(=O)cc(-c3ccccc3)oc2c1	-13.7%
CCOC(=O)C1(CCOc2ccccc2)CCN(Cc2ccc(COC)o2)CC1	-63.7%
Nc1ccc(N=Nc2ccc(N)cc2)cc1	22.3%
Brc1cccc(Nc2nc(-c3cccnc3)cs2)c1	29.1%
Cc1cc(C(F)(F)F)c2c(N)c(C(=O)Nc3cc(C)on3)sc2n1	4.53%
Cl.Clc1ccc(CNC2CN3CCC2CC3)cc1 (stereo not drawn)	-28.6%
CCCc1nc(SCC(N)=O)[nH]c(=O)c1CC	7.34%
C=CCN1C(=O)c2ccc(C(=O)N3CCN(S(=O)(=O)c4cccc(Cl)c4)CC3)cc2C1=O	-14.8%
COc1ccc(Br)cc1CN(C)CC(=O)NCc1ccc(F)cc1.O=C(O)C(=O)O	-19.3%
Cc1ccc(NC(=O)COC(=O)Cn2cnc3c2c(=O)n(C)c(=O)n3C)c(Cl)c1	4.68%
CCN=C(NC#N)SCc1c(F)cccc1Cl	7.17%
c1ccc(CN2CCC(=NNc3nc4ccccc4[nH]3)CC2)cc1	-17.1%
CC(C)c1nc(CNC(=O)CC2C(=O)NCCN2Cc2ccoc2)cs1 (stereo not drawn)	-6.74%
C=CCN1C(=O)NC(=O)/C(=C/c2ccoc2)C1=O	20.5%
CCCSc1nc(N)c(C#N)c(-c2ccc(C)cc2)c1C#N	15.7%
CC(C)Cc1cc(C(=O)NCCc2ccccc2)no1	-4.66%

SMILES	hERG current change (%, negative = inhibition) at 10uM
Cc1ccc(C)c(N2CC(C(=O)Nc3nccs3)CC2=O)c1 (stereo not drawn)	8.88%
Cc1ccc(O)c(C(=O)c2cc(C#N)c(=O)n(-c3nccs3)c2)c1	5.96%
O=C(c1ccco1)N1N=C(c2ccc(Br)cc2)CC1(O)C(F)(F)F (stereo not drawn)	17.9%
CCOC(=O)CSc1nc(C)cc(Oc2ccc(=O)n(C)n2)n1	9.38%
O=S(=O)(NCC1CCCO1)c1ccc2ccccc2c1 (stereo not drawn)	-7.09%
O=C(CSc1nnc2scc(-c3ccccc3)n12)N1CCCc2ccccc21	-11.8%
Cc1cccc(C(=O)OCC(=O)c2c(N)n(CC(C)C)c(=O)n(C)c2=O)c1[N+](=O)[O-]	-29.1%
Cc1c(C)c2ccc(OC(C)C(=O)NCCc3c[nH]c4ccccc34)cc2oc1=O (stereo not drawn)	-2.3%
CCNC(=O)CN(C1CCCCC1)S(C)(=O)=O	-0.485%
CCn1c(NCc2cccc(OC)c2OC)nc2ccccc21	-21%
CC(=O)OCCNc1cc(SC(C)C)c2nonc2c1[N+](=O)[O-]	-3.86%
Cc1ccc(N=C2NC(=O)/C(=C/C=C/c3ccco3)S2)cc1	25.4%
CCC1CC(C)(C(=O)Nc2ccc(S(N)(=O)=O)cc2)OC1=O (stereo not drawn)	2.52%
COC(=O)COc1ccc(S(=O)(=O)N2CCN(c3ccccc3F)CC2)cc1	-3.27%
Cc1cc(C)n2ncc(S(=O)(=O)c3ccccc3)c2n1	7.89%
CCOC(=O)CNC(=O)C1CCCN(c2ncccn2)C1 (stereo not drawn)	19.6%
C=CCOc1ccc(CNC(C)(C)CO)cc1OCC.Cl	5.02%
Cc1ccc(NC(=S)c2nc3ccccc3[nH]2)c(C)c1	15.2%
CCCN(CC(=O)Nc1ccccc1OC)C(C)C(=O)NC(C)CCc1ccccc1 (stereo not drawn)	4.82%
COc1ccc(N(C(=O)CNC(=O)c2ccco2)C(C(=O)NC2CCCC2)c2cccnc2)cc1 (stereo not drawn)	17.1%
Cc1ccc(S(=O)(=O)C2CS(=O)(=O)CC2O)cc1 (stereo not drawn)	17.5%
CCOC(=O)N1CCN(C(=O)COC(=O)c2ccccc2NCCO)CC1	13.3%
